PMC6634424
Changes are numbered by the printed parent chain. Numbers in names are those of the source. These are yes or no findings as the source states them, for the method shown. Some entries that bind do so weakly or less than the wild type.

T1: ZED1^wt (Arabidopsis thaliana) (UniProt Q8LGB6)
T1 sequence: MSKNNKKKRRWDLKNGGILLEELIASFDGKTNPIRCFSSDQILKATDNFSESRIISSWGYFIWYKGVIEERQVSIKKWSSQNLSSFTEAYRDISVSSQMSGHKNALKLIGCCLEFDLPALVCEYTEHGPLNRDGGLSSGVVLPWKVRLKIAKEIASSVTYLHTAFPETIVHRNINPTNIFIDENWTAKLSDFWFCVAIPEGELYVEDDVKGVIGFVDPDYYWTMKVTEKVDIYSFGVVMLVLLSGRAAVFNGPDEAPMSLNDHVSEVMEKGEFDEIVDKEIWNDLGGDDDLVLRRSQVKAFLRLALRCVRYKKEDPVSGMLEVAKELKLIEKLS

T2: ZRK1/RKS1 (Arabidopsis thaliana) (UniProt Q9SVY5)
T2 sequence: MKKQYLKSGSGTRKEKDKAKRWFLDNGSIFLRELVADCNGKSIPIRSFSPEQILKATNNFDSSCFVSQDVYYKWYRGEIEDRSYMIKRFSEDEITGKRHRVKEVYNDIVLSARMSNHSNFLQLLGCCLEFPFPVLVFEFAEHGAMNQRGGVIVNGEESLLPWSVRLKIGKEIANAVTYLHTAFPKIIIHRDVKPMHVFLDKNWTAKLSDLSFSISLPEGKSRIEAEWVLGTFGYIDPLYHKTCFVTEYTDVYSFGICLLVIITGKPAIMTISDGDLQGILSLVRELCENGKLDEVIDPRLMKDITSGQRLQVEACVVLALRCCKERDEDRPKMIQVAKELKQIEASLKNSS

T3: ZED1^V212T (Arabidopsis thaliana) (UniProt Q8LGB6)
T3 sequence: T1 sequence with V212T

T4: ZED1^(N173D W193G) (Arabidopsis thaliana) (UniProt Q8LGB6)
T4 sequence: T1 sequence with N173D, W193G

T5: ZED1^‘EDG’ (Arabidopsis thaliana) (UniProt Q8LGB6)
T5 sequence: T1 sequence with D92E, N173D, W193G

T6: ZED1^N173D (Arabidopsis thaliana) (UniProt Q8LGB6)
T6 sequence: T1 sequence with N173D

T7: ZED1^(D92E N173D) (Arabidopsis thaliana) (UniProt Q8LGB6)
T7 sequence: T1 sequence with D92E, N173D

B1: PBL15^S260I (protein, UniProt Q9SY91 1-424)
chain: MRDSSTTASTKSSPLWKPFASNCCSVDDQTVFGNLSRCRPSRSEFSKNHLGPLPSFRRLSFADLSRSSSARINEDLAQTLGADLVDFQMCELKMITQSFSGNYLLGEGGFGKVYKGYVDDYLRQSLKAQPVAVKLLDIEGLQGHREWLSEVIFLGQLKHPNLVKLIGYCCEEEERVLIYEFMPRGSLENHLFRRISLSLPWATRLKIAVAAAKGLAFLHDLESPIIYRDFKTSNILLDSDFTAKLSDFGLAKMGPEGSKIHVTTRVMGTYGYAAPEYVSTGHLTTKSDVYSYGVVLLELLTGRRATEKSRPKNQQNIIDWSKPYLTSSRRLRCVMDPRLAGQYSVKAAKDTALLALQCVSPNPKDRPKMLAVVEALESLIHYKDMAVSSGHWPLSPKSQGGKVSPKVRGDHRSGRKSAPGSLRS
B2: PBL21 (protein, UniProt Q9LDZ5 1-381)
chain: MTCCFSCLNPRTKDIRVDIDNARCNSRYQTDSSVHGSDTTGTESISGILVNGKVNSPIPGGGARSFTFKELAAATRNFREVNLLGEGGFGRVYKGRLDSGQVVAIKQLNPDGLQGNREFIVEVLMLSLLHHPNLVTLIGYCTSGDQRLLVYEYMPMGSLEDHLFDLESNQEPLSWNTRMKIAVGAARGIEYLHCTANPPVIYRDLKSANILLDKEFSPKLSDFGLAKLGPVGDRTHVSTRVMGTYGYCAPEYAMSGKLTVKSDIYCFGVVLLELITGRKAIDLGQKQGEQNLVTWSRPYLKDQKKFGHLVDPSLRGKYPRRCLNYAIAIIAMCLNEEAHYRPFIGDIVVALEYLAAQSRSHEARNVSSPSPEISRTPRRDL
B3: PBS1 (protein, UniProt Q9FE20 1-456)
chain: MGCFSCFDSSDDEKLNPVDESNHGQKKQSQPTVSNNISGLPSGGEKLSSKTNGGSKRELLLPRDGLGQIAAHTFAFRELAAATMNFHPDTFLGEGGFGRVYKGRLDSTGQVVAVKQLDRNGLQGNREFLVEVLMLSLLHHPNLVNLIGYCADGDQRLLVYEFMPLGSLEDHLHDLPPDKEALDWNMRMKIAAGAAKGLEFLHDKANPPVIYRDFKSSNILLDEGFHPKLSDFGLAKLGPTGDKSHVSTRVMGTYGYCAPEYAMTGQLTVKSDVYSFGVVFLELITGRKAIDSEMPHGEQNLVAWARPLFNDRRKFIKLADPRLKGRFPTRALYQALAVASMCIQEQAATRPLIADVVTALSYLANQAYDPSKDDSRRNRDERGARLITRNDDGGGSGSKFDLEGSEKEDSPRETARILNRDINRERAVAEAKMWGESLREKRRQSEQGTSESNSTG
B4: PBL2 (protein, UniProt O49839 1-426)
chain: MGNCLDSSAKVDNSNHSPHANSASSGSKVSSKTSRSTGPSGLSTTSYSTDSSFGPLPTLRTEGEILSSPNLKAFTFNELKNATKNFRQDNLLGEGGFGCVFKGWIDQTSLTASRPGSGIVVAVKQLKPEGFQGHKEWLTEVNYLGQLSHPNLVLLVGYCAEGENRLLVYEFMPKGSLENHLFRRGAQPLTWAIRMKVAVGAAKGLTFLHEAKSQVIYRDFKAANILLDADFNAKLSDFGLAKAGPTGDNTHVSTKVIGTHGYAAPEYVATGRLTAKSDVYSFGVVLLELISGRRAMDNSNGGNEYSLVDWATPYLGDKRKLFRIMDTKLGGQYPQKGAFTAANLALQCLNPDAKLRPKMSEVLVTLEQLESVAKPGTKHTQMESPRFHHSSVMQKSPVRYSHDRPLLHMTPGASPLPSYTQSPRVR
B5: PBL3 (protein, UniProt O49840 1-426)
chain: MGNCLDSSAKVDSSSHSPHANSASLSSRVSSKTSRSTVPSSLSINSYSSVESLPTPRTEGEILSSPNLKAFTFNELKNATRNFRPDSLLGEGGFGYVFKGWIDGTTLTASKPGSGIVVAVKKLKTEGYQGHKEWLTEVNYLGQLSHPNLVKLVGYCVEGENRLLVYEFMPKGSLENHLFRRGAQPLTWAIRMKVAIGAAKGLTFLHDAKSQVIYRDFKAANILLDAEFNSKLSDFGLAKAGPTGDKTHVSTQVMGTHGYAAPEYVATGRLTAKSDVYSFGVVLLELLSGRRAVDKSKVGMEQSLVDWATPYLGDKRKLFRIMDTRLGGQYPQKGAYTAASLALQCLNPDAKLRPKMSEVLAKLDQLESTKPGTGVGNRQAQIDSPRGSNGSIVQKSPRRYSYDRPLLHITPGASPLPTHNHSPRVR

Assays:
[1] = biological target: T1, ZED1^wt (Arabidopsis thaliana); experiment: two-hybrid; Y2H: LexA-ZED1 (wt or mutant) bait, PBL (wt or mutant) preys, no effector; X-Gal reporter plates, 30°C
[2] = biological target: T1, ZED1^wt (Arabidopsis thaliana); experiment: two-hybrid; Y3H: LexA-ZED1 (wt or mutant) bait, PBL (wt or mutant) preys, HopZ1a^wt expressed from the yeast ho locus
[3] = biological target: T2, ZRK1/RKS1 (Arabidopsis thaliana); experiment: two-hybrid; Y2H: LexA-ZRK1/RKS1 bait, 46 PBL preys, no AvrAC; X-Gal reporter plates, 30°C
[4] = biological target: T1, ZED1^wt (Arabidopsis thaliana); experiment: two-hybrid; Y3H: LexA-ZED1 bait, 46 PBL preys, HopZ1b expressed from the ho locus
[5] = biological target: T3, ZED1^V212T (Arabidopsis thaliana); experiment: two-hybrid; Y2H: LexA-ZED1 (wt or mutant) bait, PBL (wt or mutant) preys, no effector; X-Gal reporter plates, 30°C
[6] = biological target: T4, ZED1^(N173D W193G) (Arabidopsis thaliana); experiment: as above
[7] = biological target: T5, ZED1^‘EDG’ (Arabidopsis thaliana); experiment: as above
[8] = biological target: HopZ1a^wt (Pseudomonas syringae) (UniProt Q6VE93); experiment: two-hybrid; Y2H: LexA-HopZ1a (wt or C216A) bait, array of 46 NLS-B42-HA-PBL preys, diploid yeast, X-Gal reporter plates, 30°C
[9] = biological target: T6, ZED1^N173D (Arabidopsis thaliana); experiment: two-hybrid; Y2H: LexA-ZED1 (wt or mutant) bait, PBL (wt or mutant) preys, no effector; X-Gal reporter plates, 30°C
[10] = biological target: T7, ZED1^(D92E N173D) (Arabidopsis thaliana); experiment: as above
[11] = biological target: T2, ZRK1/RKS1 (Arabidopsis thaliana); experiment: two-hybrid; Y3H: LexA-ZRK1/RKS1 bait, 46 PBL preys, AvrAC expressed from the yeast ho locus

Binder | binding [2] | binding [3] | binding [6] | binding [7] | binding [11] | other results
B1 | – | – | – | – | – | binding [1]: binds
B2 | binds | binds | binds | binds | – | binding [4]: binds; binding [5]: binds
B3 | binds | – | no binding | no binding | – | binding [8]: no binding; binding [9]: binds; binding [10]: binds
B4 | – | binds | – | – | binds | –
B5 | – | – | – | – | binds | –
